# Patent US10829440B2, “Antibacterial compounds and methods of making and using same” (Brown University, priority 2015, dated 2020)
# Tested on: B. subtilis
# Assay: Single concentration (250 μM) whole-cell resazurin fluorescence assay
# Details: 250 μM single-concentration assay
# Protocol: The assay was performed in LB broth.
# Tested compounds are exemplified in Scheme 14. In an initial set-up, each compound was evaluated at the single concentration of 250 μM in triplicate. […] After incubation of the bacteria with the inhibitors for four hours, resazurin dye was added and the plate was immediately placed in a plate reader. Fluorescence of each well was measured at 590 nm at 0, 5, 10, 20, and 60 min after addition of the dye. A higher growth rate of bacteria produces more resorufin and thus more fluorescence. Lower fluorescence therefore indicates better growth inhibition.
# Fluorescence was further evaluated as it developed over time.
smiles,measurement,value
O=C(NC1CCCCC1)C(C1CCCCC1)N(C(=O)c1ccccc1I)C1CCCCC1 (stereo not shown) [fgkc],degree of inhibitory activity across all three runs,highest degree of inhibitory activity
